In PMC5700166:
This is a selection; strong and weak results do not stand in their true shares. The list includes weakly bound sequences.

What was measured:
Experiment in all cases: protein-binding microarray (PBM)
Details in all cases: PBM: ~300 nM protein, 6 mM HEPES pH 7.8, 80 mM KCl, 0.5 mM EDTA, 0.5 mM EGTA, 6% glycerol, 35 ng/ul poly-dIdC, 1% milk, 1 h, room temperature; Ap Aiptasia and Nv Nematostella (sea anemones) / Co Capsaspora / Aq Amphimedon (sponge) / Dm Drosophila / Hu human; RHD is the Rel homology domain; high values mean tight binding; most listed sequences are background and not binding sites; double strand, one strand shown
GST-Ap-NF-kB RHD = molecular target: T1, GST-Ap-NF-kB RHD (UniProt A0A913YAJ5)
T1 sequence: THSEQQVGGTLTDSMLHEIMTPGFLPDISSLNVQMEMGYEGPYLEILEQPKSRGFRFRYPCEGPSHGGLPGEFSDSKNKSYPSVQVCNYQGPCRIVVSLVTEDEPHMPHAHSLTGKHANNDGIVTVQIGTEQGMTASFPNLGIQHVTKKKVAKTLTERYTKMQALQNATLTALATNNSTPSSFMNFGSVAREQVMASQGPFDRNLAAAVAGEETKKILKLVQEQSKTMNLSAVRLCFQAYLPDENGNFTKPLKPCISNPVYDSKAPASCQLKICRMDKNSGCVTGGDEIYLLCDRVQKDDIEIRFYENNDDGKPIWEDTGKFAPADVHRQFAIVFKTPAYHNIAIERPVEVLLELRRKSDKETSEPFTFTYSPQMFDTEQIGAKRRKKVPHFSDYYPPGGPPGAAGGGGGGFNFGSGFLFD

[1] = molecular target: T2, GST-Nv-NF-kB (Cys allele) (UniProt E5G601)
T2 sequence: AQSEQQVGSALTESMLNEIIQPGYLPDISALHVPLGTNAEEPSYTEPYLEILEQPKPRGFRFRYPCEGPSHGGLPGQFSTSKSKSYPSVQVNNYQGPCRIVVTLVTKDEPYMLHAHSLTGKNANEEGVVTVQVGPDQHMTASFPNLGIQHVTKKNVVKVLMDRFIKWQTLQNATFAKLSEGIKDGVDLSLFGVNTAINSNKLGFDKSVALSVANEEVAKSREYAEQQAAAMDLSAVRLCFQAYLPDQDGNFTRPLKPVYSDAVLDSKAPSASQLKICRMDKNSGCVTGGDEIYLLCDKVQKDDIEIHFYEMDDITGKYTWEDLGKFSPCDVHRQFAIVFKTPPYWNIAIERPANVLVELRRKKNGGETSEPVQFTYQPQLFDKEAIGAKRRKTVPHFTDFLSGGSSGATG

GST-Co-NF-kB = molecular target: T3, GST-Co-NF-kB (UniProt F1ARL5)
T3 sequence: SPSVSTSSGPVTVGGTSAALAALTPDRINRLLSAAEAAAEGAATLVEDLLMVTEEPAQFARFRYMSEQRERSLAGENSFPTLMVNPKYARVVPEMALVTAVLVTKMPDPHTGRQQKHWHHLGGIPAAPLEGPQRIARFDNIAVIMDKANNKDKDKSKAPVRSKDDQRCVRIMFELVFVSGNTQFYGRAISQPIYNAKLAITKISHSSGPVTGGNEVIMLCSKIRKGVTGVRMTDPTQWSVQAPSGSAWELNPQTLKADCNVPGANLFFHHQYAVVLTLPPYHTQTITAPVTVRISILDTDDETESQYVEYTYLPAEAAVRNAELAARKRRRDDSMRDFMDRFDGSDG

GST-Dm-Relish = molecular target: T4, GST-Dm-Relish (UniProt Q94527)
T4 sequence: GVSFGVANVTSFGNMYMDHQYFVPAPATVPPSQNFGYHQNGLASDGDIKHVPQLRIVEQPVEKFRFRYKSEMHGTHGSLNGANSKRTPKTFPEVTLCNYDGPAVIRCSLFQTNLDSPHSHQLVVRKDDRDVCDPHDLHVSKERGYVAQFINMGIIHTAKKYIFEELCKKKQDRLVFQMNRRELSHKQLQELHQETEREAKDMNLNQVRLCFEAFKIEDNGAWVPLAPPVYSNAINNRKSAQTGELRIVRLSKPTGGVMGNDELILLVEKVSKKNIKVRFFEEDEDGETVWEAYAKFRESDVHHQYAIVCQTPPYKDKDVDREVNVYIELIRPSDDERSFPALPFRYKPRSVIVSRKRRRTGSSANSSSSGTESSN

GST-Aq-NF-kB = molecular target: T5, GST-Aq-NF-kB (UniProt A9Y5G7)
T5 sequence: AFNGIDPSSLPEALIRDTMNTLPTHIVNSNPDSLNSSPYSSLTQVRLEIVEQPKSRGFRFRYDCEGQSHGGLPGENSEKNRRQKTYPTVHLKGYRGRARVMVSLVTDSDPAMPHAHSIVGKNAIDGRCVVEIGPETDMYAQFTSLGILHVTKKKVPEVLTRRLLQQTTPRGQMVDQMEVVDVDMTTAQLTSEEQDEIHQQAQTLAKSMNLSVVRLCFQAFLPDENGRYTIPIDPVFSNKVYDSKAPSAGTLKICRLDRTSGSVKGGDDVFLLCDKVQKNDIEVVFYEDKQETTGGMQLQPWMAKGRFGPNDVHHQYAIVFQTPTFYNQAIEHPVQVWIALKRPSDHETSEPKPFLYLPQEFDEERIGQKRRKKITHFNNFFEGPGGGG

Row | Sequence | binding signal (GST-Ap-NF-kB RHD) [z-score] | binding signal [1] [z-score] | binding signal (GST-Co-NF-kB) [z-score] | binding signal (GST-Dm-Relish) [z-score] | binding signal (GST-Aq-NF-kB) [z-score]
1 | CCGATTAACATCATATTCGTAGCTGATGTTAATCGGGTCTTGATTCGCTTGACGCTGCTG | -0.599 | -0.285 | 0.413 | -0.379 | -0.404
2 | CCGATTAACATCATTAGGTTTATTGATGTTAATCGGGTCTTGATTCGCTTGACGCTGCTG | -0.453 | -0.419 | -0.226 | -0.222 | -0.263
3 | CCGATTAACATCAGGGCAATCCATGATGTTAATCGGGTCTTGATTCGCTTGACGCTGCTG | 0.255 | -0.234 | -0.0643 | 0.0971 | 0.979
4 | CCGATTAACATCAGTTCGGGCCGTGATGTTAATCGGGTCTTGATTCGCTTGACGCTGCTG | -0.0835 | -0.966 | -1.09 | -0.7 | -0.306
5 | CCGATTAACATCACGGATAATCCTGATGTTAATCGGGTCTTGATTCGCTTGACGCTGCTG | 0.19 | -0.197 | -0.175 | -0.158 | 0.754
6 | CCGATTAACATCAAGGATATTCCTGATGTTAATCGGGTCTTGATTCGCTTGACGCTGCTG | -0.714 | -0.0182 | -0.139 | -0.369 | 0.827
7 | CCGATTAACATCACCAAAATTCCTGATGTTAATCGGGTCTTGATTCGCTTGACGCTGCTG | 0.548 | 0.437 | 0.389 | 1.01 | 1.17
8 | CCGATTAACATCAACTCAAGCCCTGATGTTAATCGGGTCTTGATTCGCTTGACGCTGCTG | -0.063 | -0.991 | -0.549 | -0.7 | -0.264
9 | CCGATTAACATCAGTCTGGAACTTGATGTTAATCGGGTCTTGATTCGCTTGACGCTGCTG | -0.807 | -0.0716 | -0.268 | -0.403 | -0.584
10 | CCGATTAACATCAAAATTCCCCTTGATGTTAATCGGGTCTTGATTCGCTTGACGCTGCTG | 10.1 | 12.5 | 7.63 | 9.78 | 9.63
11 | CCGATTAACATCAAGGAGATTTGTGATGTTAATCGGGTCTTGATTCGCTTGACGCTGCTG | -0.289 | -0.104 | 0.486 | 0.231 | -0.208
12 | CCGATTAACATCAAATCATGATCTGATGTTAATCGGGTCTTGATTCGCTTGACGCTGCTG | -0.586 | -0.831 | -2.33 | -1.31 | -0.604
13 | CCGATTAACATCAGGTTAGTAGATGATGTTAATCGGGTCTTGATTCGCTTGACGCTGCTG | -0.19 | -0.558 | -0.386 | -0.285 | -0.208
14 | CCGATTAACATCAATGATAACAATGATGTTAATCGGGTCTTGATTCGCTTGACGCTGCTG | -1.48 | -0.17 | -0.37 | -0.254 | -0.114
15 | CCGATTAACATCATCCATAGTGCTGATGTTAATCGGGTCTTGATTCGCTTGACGCTGCTG | -0.242 | -0.555 | -0.424 | -0.386 | -0.433
16 | CCGATTAACATCAGGTATCACATTGATGTTAATCGGGTCTTGATTCGCTTGACGCTGCTG | -0.423 | -0.727 | 0.462 | -0.278 | -0.451
17 | CCGATTAACATCATGTGCAGCGATGATGTTAATCGGGTCTTGATTCGCTTGACGCTGCTG | -0.535 | -0.526 | -1.5 | -0.693 | -0.468
18 | CCGATTAACATCACCGTTATTATTGATGTTAATCGGGTCTTGATTCGCTTGACGCTGCTG | 0.411 | -0.307 | 0.725 | 0.794 | 0.371
19 | CCGATTAACATCAGGAATTGGGATGATGTTAATCGGGTCTTGATTCGCTTGACGCTGCTG | 0.594 | 0.519 | 0.621 | 0.251 | 0.329
20 | CCGATTAACATCACACAAGGCTTTGATGTTAATCGGGTCTTGATTCGCTTGACGCTGCTG | -0.739 | -0.176 | -1.02 | 0.224 | -0.628
21 | CCGATTAACATCAAGAATTTCCATGATGTTAATCGGGTCTTGATTCGCTTGACGCTGCTG | -0.508 | -0.155 | -0.189 | 0.353 | 0.846
22 | CCGATTAACATCATCATGTTAAATGATGTTAATCGGGTCTTGATTCGCTTGACGCTGCTG | -1.23 | -0.99 | -0.38 | -0.202 | -0.571
23 | CCGATTAACATCAGACATCGACATGATGTTAATCGGGTCTTGATTCGCTTGACGCTGCTG | 0.218 | -0.627 | -0.683 | -0.922 | -0.376
24 | CCGATTAACATCAGGTCAAAGCCTGATGTTAATCGGGTCTTGATTCGCTTGACGCTGCTG | -0.926 | -0.292 | -1.83 | -1.13 | -0.634
25 | CCGATTAACATCAAAATCCCCCTTGATGTTAATCGGGTCTTGATTCGCTTGACGCTGCTG | 10.1 | 10.7 | 6.3 | 10.2 | 8.68
26 | CCGATTAACATCACATTGTTGGATGATGTTAATCGGGTCTTGATTCGCTTGACGCTGCTG | -0.55 | 0.169 | -0.225 | 0.349 | -0.259
27 | CCGATTAACATCACGAAGAGGCATGATGTTAATCGGGTCTTGATTCGCTTGACGCTGCTG | 0.269 | 0.142 | 0.513 | -0.298 | -0.291
28 | CCGATTAACATCACGTGCTCCCGTGATGTTAATCGGGTCTTGATTCGCTTGACGCTGCTG | 0.783 | -0.459 | 0.19 | 0.115 | 0.223
